Reference: the supplement of paper PMC10126150
Sequences with one replicate were seen in a single cluster, so their values are uncertain.

What follows are sequences tested on ATP (assay: switch fluorescence ratio, 500 uM ATP over buffer (Cy3 cluster intensity, sum of 5 cycles each) (fold (ratio)); higher = stronger signal-on switching upon ATP binding; sequences stand for … in TCGTCGGCAGCGTCAGATGTGTATAAGAGACAGTTTTTTTTTTTTTTTTTTTTTTTTT…TC). Conditions: aptamer strand: ATP DNA aptamer (quencher-CACCTGGGGGAGTATTGCGGAGGAAGG + anchor), 100 nM annealed; ATP concentration: 500 uM; one replicate.
In short: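 Cy3-labelled switching-strand clusters on a modified Illumina MiSeq flow-cell were annealed to 100 nM quencher-labelled ATP aptamer, imaged in selection buffer, then imaged after 15 min with 500 uM ATP at 22 °C. Five buffer/ATP cycles ran, with NaOH stripping and re-annealing between them. The fluorescence ratio is summed target-cycle over summed buffer-cycle Cy3 intensity per cluster, averaged per switch-domain sequence. Clusters outside 100-1000 RFU were excluded.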
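Also: ATP exposure 15 min at 22 °C before imaging.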

Sequence | switch fluorescence ratio
CGCCGGCGT | 1.03
CGCCGGTCAC | 1.09
CGCCGTCCAC | 1.18
CGCCGTTGAA | 0.964
CGCCTAACCA | 0.992
CGCCTACAGT | 1.03
CGCCTAGATT | 0.931
CGCCTAGGGC | 1.01
CGCCTCGCTA | 1.24
CGCCTGATGG | 1.01
CGCCTTAGAG | 0.983
CGCGAACAGG | 1.08
CGCGAAGCCC | 1
CGCGAGATCA | 1.03
CGCGAGCGCG | 0.916
CGCGAGTTAG | 1.06
CGCGCAGCTA | 1.01
CGCGCCGCGT | 1.01
CGCGCCGCTG | 1.03
CGCGCGAGGA | 0.996
CGCGCGTGG | 1.01
CGCGCTGCAG | 0.966
CGCGGATCGC | 1.03
CGCGGCACTT | 1.02
CGCGGCATTC | 3.19
CGCGGCCGGG | 0.996

Sequence | switch fluorescence ratio
CGCGGCTTGA | 1.05
CGCGGGCTGG | 1.03
CGCGGGGTCG | 0.941
CGCGGTCCGT | 1.02
CGCGGTGATA | 1.02
CGCGTAACGA | 1.03
CGCGTAGGGG | 1
CGCGTAGTTT | 1.02
CGCGTCAGAG | 1.02
CGCGTCCCAA | 1.22
CGCGTCGAAA | 0.971
CGCGTCGCGT | 0.994
CGCGTTACAC | 1.48
CGCGTTAGAA | 1.02
CGCGTTCACT | 1.04
CGCGTTCGGG | 0.993
CGCTAAATTT | 1.03
CGCTAACTAT | 1.16
CGCTAATCTG | 1.11
CGCTACTCAG | 2.18
CGCTACTTGG | 1.03
CGCTAGAGGA | 1.06
CGCTAGGGGC | 1.07
CGCTATCGTC | 1.05
CGCTCACCCG | 1.23
CGCTCCAATA | 2.21

Sequence | switch fluorescence ratio
CGCTCCACCC | 1.36
CGCTCCCATA | 1.82
CGCTCTACCG | 1.04
CGCTCTCCAC | 2.27
CGCTCTGCCT | 1.02
CGCTCTTACG | 1.03
CGCTCTTGAG | 0.961
CGCTGACTCT | 1.2
CGCTGATTAC | 3.51
CGCTGATTGA | 1.04
CGCTGGAGTG | 0.991
CGCTGGGTGA | 0.999
CGCTGTGAAC | 1.09
CGCTGTGACA | 0.975
CGCTTATGTG | 0.997
CGCTTCAACC | 1.06
CGCTTCTTAG | 1.02
CGCTTGAAAC | 1.1
CGCTTGAGTG | 0.979
CGCTTGTTAC | 2.08
CGCTTTCAAT | 1.03
CGGAAAACGG | 0.98
CGGAACGTTA | 1.04
CGGAAGACT | 1.31
CGGAAGCCCA | 0.975
CGGAAGGCGC | 0.97

Sequence | switch fluorescence ratio
CGGAAGGGTC | 0.972
CGGAATTGAT | 0.982
CGGACAATTA | 1.15
CGGACATGAT | 1.04
CGGACCATCA | 1.02
CGGACCCGGG | 1.15
CGGACGAGGG | 1.02
CGGACGCAGG | 1.97
CGGACGGCTG | 0.981
CGGACGTTGC | 2.05
CGGAGAGGAC | 1.09
CGGAGATAGA | 1
CGGAGATGAT | 1.02
CGGAGTCCAT | 1.08
CGGAGTCCCG | 0.965
CGGAGTGGGT | 1.09
CGGAGTTAGA | 1.04
CGGAGTTCGC | 1.09
CGGATAAGAC | 1.15
CGGATAATGC | 1.19
CGGATACCTC | 1.13
CGGATACGTT | 0.988
CGGATATCC | 0.983
CGGATATGGG | 0.977
CGGATCAAA | 1.01
CGGATCGTAC | 1.29

Sequence | switch fluorescence ratio
CGGATGAACT | 0.999
CGGATGAAGT | 1.02
CGGATGGATA | 1
CGGATGGCTC | 1.04
CGGATGGGC | 0.961
CGGATGTAAA | 0.991
CGGATTAGCG | 0.994
CGGCAAAGCC | 1
CGGCAACGTA | 0.992
CGGCACCTTC | 1.22
CGGCACGGGA | 0.98
CGGCAGGTGG | 1.05
CGGCCCAA | 1.71
CGGCCCACAA | 1.3
CGGCCCGCAC | 4.64
CGGCCCTACC | 1.1
CGGCCGACGT | 0.997
CGGCGAGGGA | 1.03
CGGCGAGTGC | 0.998
CGGCGCAGGT | 1.09
CGGCGCGGGA | 0.991
CGGCGGAGA | 1.01
CGGCGGGCG | 0.926
CGGCGGGCGT | 0.942
CGGCGGTTT | 1
CGGCGTCTAG | 0.973

Sequence | switch fluorescence ratio
CGGCGTTAGA | 1.01
CGGCGTTTCT | 0.996
CGGCTATAGA | 0.975
CGGCTCACAT | 1
CGGCTCAGTA | 0.936
CGGCTGGGCA | 1.03
CGGCTTAACA | 0.999
CGGCTTATCA | 0.986
CGGCTTGGAC | 1.05
CGGGAATT | 1
CGGGACCTG | 1.01
CGGGACGTT | 1.18
CGGGACTTG | 1.02
CGGGAGTAAC | 1.02
CGGGATGGC | 1.03
CGGGATTGCG | 0.98
CGGGCACAGG | 1.34
CGGGCACCCT | 0.957
CGGGCCAAGT | 1.01
CGGGCCATGG | 0.984
CGGGCGCCTG | 0.993
CGGGCGCGAA | 1.01
CGGGCGTAGC | 1.1
CGGGCTTGAG | 0.954
CGGGGACCTG | 0.987
CGGGGACTTA | 0.981

Sequence | switch fluorescence ratio
CGGGGCTAGA | 1.02
CGGGGCTCGC | 1.02
CGGGGCTGTC | 0.924
CGGGGGATAC | 1.69
CGGGGGGAGT | 1.01
CGGGGTCGCG | 0.982
CGGGGTGACT | 0.971
CGGGTAAGGT | 0.988
CGGGTATACG | 1.03
CGGGTCATGG | 1.04
CGGGTCCCTT | 1.03
CGGGTGAACG | 0.975
CGGGTTAAAT | 1.04
CGGGTTACCT | 1.04
CGGGTTATAT | 0.974
CGGGTTGATG | 0.98
CGGTAATATA | 1.03
CGGTAATGAA | 1
CGGTAGAATG | 1.01
CGGTAGCGAG | 0.94
CGGTAGCGTA | 0.957
CGGTAGGGA | 0.964
CGGTAGTGCC | 1.03
CGGTATCAGT | 0.971
CGGTATCGTG | 0.972
CGGTATTAGT | 0.982

Sequence | switch fluorescence ratio
CGGTCAAA | 1.02
CGGTCAAGAA | 0.986
CGGTCACGTA | 0.937
CGGTCCGAT | 0.964
CGGTCTACT | 1.01
CGGTCTATAT | 1.03
CGGTCTATTT | 1.03
CGGTGAAGAC | 1.07
CGGTGACTAC | 1
CGGTGAGACG | 1.05
CGGTGAGTA | 1.02
CGGTGATTGC | 0.992
CGGTGCAGGC | 0.843
CGGTGCCAGT | 0.991
CGGTGCTGG | 0.963
CGGTGGTAAC | 0.993
CGGTGGTCTG | 1.03
CGGTGTATCT | 0.979
CGGTGTGCTA | 1.03
